Some entries of the source have several records that differ or are many. The list is limited to them. An entry can have further records. Results that share an entry are repeats in other runs, samples, wells, individuals or studies. A tag in brackets gives the origin of a value. Letters hold for one entry only.
Target: Transitional endoplasmic reticulum ATPase (Homo sapiens) (UniProt P55072)
Experiment: VCP ATP hydrolysis inhibition, purified enzyme – biochemical, dose response, round 3, SAR follow-up (AID 504650)
Conditions: purified p97 ATPase, Kinase-Glo luminescence
How it was run: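 Also added: ATP substrate, 500 µM stock; Assay system: human p97 ATPase protein; Buffer or medium: Tris pH 7.4 buffer with MgCl2, EDTA; Signal: Kinase-Glo Plus luminescence measuring residual ATP; Measure: IC50 from fit of percent remaining activity versus compound concentration; Incubation: 10 min room-temperature enzyme–compound preincubation, 30 min 37 °C ATP reaction.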

Sequence of UniProt P55072 (P55072 whole entry, looked up): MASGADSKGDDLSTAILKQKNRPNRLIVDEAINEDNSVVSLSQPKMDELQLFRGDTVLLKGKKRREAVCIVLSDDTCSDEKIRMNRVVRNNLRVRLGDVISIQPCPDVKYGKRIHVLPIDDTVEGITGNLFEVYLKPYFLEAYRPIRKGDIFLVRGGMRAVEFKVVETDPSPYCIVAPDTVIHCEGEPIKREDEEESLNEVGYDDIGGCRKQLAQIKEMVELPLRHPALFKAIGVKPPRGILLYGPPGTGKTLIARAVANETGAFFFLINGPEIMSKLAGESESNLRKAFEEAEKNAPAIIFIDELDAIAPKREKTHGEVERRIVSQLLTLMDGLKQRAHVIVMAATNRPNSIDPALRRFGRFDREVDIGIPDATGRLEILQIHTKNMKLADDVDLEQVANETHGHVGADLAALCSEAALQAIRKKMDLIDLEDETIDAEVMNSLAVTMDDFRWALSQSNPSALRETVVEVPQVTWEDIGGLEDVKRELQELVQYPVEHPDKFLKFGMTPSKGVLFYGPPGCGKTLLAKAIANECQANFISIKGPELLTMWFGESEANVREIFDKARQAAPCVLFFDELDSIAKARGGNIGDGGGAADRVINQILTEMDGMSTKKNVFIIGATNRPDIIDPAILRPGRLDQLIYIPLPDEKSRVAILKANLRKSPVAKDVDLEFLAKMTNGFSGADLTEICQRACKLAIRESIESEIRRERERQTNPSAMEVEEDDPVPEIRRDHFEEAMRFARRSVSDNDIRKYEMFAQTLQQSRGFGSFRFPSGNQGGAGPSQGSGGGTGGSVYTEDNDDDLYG

IC50: 43 nM [sample A] and 500 nM [sample B]
SMILES: COc1cccc2c(NCc3ccccc3)nc(-n3c(N)nc4c(F)cccc43)nc12

Reference: PubChem BioAssay AID504650 (Molecular Libraries Program, Specialized Chemistry Center, …, 2011)
